From PubChem BioAssay AID1159614 (National Center for Advancing Translational Sciences (NCATS), 2016)
In all, about 45,000 compounds went through this assay and about 65 (0.1%) were called active. The call rests on the fitted dose curve; in most records, active means well fitted activation curve with a large enough effect; inconclusive means small, poorly fitted or top-dose-only effect; inactive means no such curve, though single readings can be large or run the other way. The list shows a part of the results.

molecular target: Galactocerebrosidase (Homo sapiens) (UniProt P54803); experiment: A Novel Cell-Based Assay to Identify Small Molecules for B -Galactocerebrosidase; conditions: 145M-Twi-hGALC-G270D cells (Twitcher mouse brain line with human GALC G270D), HMU-beta-Gal fluorescence, 48 h; series mostly up to 57.5 µM; activation: at the top concentration; further: 0% is about no effect; nearly all actives have a fitted effect of over 65% in size
Method in brief: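 Brain-derived Twitcher mouse 145M-Twi cells stably expressing human GALC-G270D or wild-type GALC, treated live, then residual GALC activity read by fluorescence of HMU-b-Gal substrate (0.1 mM final) in citrate-phosphate buffer pH 5.2 with sodium taurocholate. Signal increase indicates enhancement.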

Sequence of UniProt P54803 (P54803 whole entry, looked up): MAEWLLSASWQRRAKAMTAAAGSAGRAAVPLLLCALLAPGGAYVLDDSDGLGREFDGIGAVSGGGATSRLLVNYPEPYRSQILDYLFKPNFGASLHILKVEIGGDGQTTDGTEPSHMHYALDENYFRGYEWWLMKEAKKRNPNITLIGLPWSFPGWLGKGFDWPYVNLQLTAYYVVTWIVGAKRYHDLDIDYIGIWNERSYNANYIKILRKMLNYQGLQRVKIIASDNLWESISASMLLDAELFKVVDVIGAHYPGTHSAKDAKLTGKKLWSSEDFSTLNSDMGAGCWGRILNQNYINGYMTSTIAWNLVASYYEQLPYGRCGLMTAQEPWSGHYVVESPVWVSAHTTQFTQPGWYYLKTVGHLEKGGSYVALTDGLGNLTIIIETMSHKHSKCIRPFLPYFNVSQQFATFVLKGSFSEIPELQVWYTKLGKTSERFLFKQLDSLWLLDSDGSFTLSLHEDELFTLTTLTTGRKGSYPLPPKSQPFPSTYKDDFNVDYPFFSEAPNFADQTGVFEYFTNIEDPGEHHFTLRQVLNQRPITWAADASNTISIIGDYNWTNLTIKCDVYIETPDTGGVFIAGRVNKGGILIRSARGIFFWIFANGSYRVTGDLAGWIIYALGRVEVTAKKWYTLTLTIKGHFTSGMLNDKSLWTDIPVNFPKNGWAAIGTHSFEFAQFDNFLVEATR

activation, inactive:
Cc1cc(NC(=O)C(C)C)cc(-c2nc3ncccc3o2)c1O -6.88%, Cc1cc(C)n2nc(SCC(=O)Nc3ccccc3)nc2n1 -16.9%, O=C1CC(c2ccccc2C(F)(F)F)c2c(c3ccccc3[nH]c2=O)O1 (configuration not stated) 1.53%, N#Cc1c(NC(=O)c2cc3nc(-c4ccc(Br)cc4)cc(C(F)(F)F)n3n2)sc2c1CCCC2 -16.2%, Cc1ccccc1OCc1nnc(SCc2cc(=O)c3ccccc3[nH]2)n1C 15.4%, CCOC(=O)C1=C(CS(=O)(=O)c2c(C)cc(C)cc2C)NC(=O)NC1c1cccc(OC)c1 (configuration not stated) -5.33%, COc1ccccc1N1CCN(C(CNC(=O)C(=O)NCCCN(C)C)c2cccnc2)CC1 (configuration not stated) -4.5%, COc1ccc(N(CC(=O)NCCc2cccc(C)c2)S(=O)(=O)c2c(C)nn(C)c2C)cc1 -9.36%, CCOc1ccc(NC(=O)C2Cc3ccccc3N2C(=O)c2ccccc2)cc1 (configuration not stated) -9.36%, COCc1cc(C)nc2sc3c(c12)NC(c1ccc(O)cc1)N(c1ccc(OC)cc1)C3=O (configuration not stated) -17.8%, COC(=O)c1cccc(Nc2c(-c3ccc(O)c(OC)c3)nc3nc[nH]n23)c1 -15.5%, Cn1c(=O)c2c(ncn2CC(O)CO)n(C)c1=O (configuration not stated) -6.24%, CCOc1ccc(-c2c(C)nn3c(C)c(C(=O)Nc4ccccc4C(=O)OC)cnc23)cc1OCC -5.66%, Cc1ccc(-c2nc3cc(C(C)C)ccc3o2)cc1NC(=O)c1cccs1 -0.392%, COc1ccccc1NC(=O)Cc1c(C(=O)O)[nH]c2ccc(Cl)cc12 -26.7%, COc1cc(Cn2c(=O)sc3ccccc32)ccc1OC(C)C -10.7%, Cc1cccc(NC(=O)CSc2nc3ccc(NC(=O)c4ccco4)cc3s2)c1 -21.5%, COCCn1c(C)cc(O)c(C(c2ccccc2)N2CCN(C)CC2)c1=O (configuration not stated) 12.5%, CCCCOc1ccc(CNC(=O)C2CCN(c3nnc(-n4cccc4CNc4ccc(C)cc4)s3)CC2)cc1 -5.17%, COc1cc(Br)c(/C=C(\C#N)c2nc3ccccc3[nH]2)cc1OC -6.21%, CC(NC(=O)c1cc(Sc2ccc(F)cc2F)nc2ccccc12)c1ccccc1 (configuration not stated) -10.9%, Cc1ccc(C)c(N2CCN(CCCNC(=O)Nc3cc(Cl)ccc3C)CC2)c1 13.6%, CCc1nn(CC(=O)N2CCCCC2)c(=O)c2cc3sccc3n12 -6.91%, COc1ccc(CNC(=O)Cc2csc3ccccc23)cc1OC -9.11%, COc1cccc(NC(=O)CCNS(=O)(=O)c2ccc(Br)s2)c1 -10.1%, CCOc1ccc(-c2nnc(SCC(=O)NCCC(C)C)nc2-c2ccc(OCC)c(OC)c2)cc1OC -15.3%, COc1ccc2nc(NC(=O)c3nc(SCc4ccc(F)cc4)ncc3Cl)sc2c1 -15.7%, Cc1cn2c(=O)c(S(=O)(=O)NCCc3ccccc3)c(C)nc2s1 -9.44%, COc1cccc(C(=O)NCC(c2ccc(N(C)C)cc2)N2CCCC2)c1OC (configuration not stated) -12.9%, CC(C)CN1CCc2nc(N3CCN(c4ncccn4)CC3)ncc2C1 -17.5%, Cc1ccc(N2C(=O)CSC23C(=O)N(CC(=O)NC2CCCCC2)c2ccccc23)cc1 (configuration not stated) -27.1%, CC(C)OCCCNC(=O)c1ccc(-n2c(-c3ccccc3)cc3c2CCCC3)cc1 -14.1%, CCc1ccccc1NC(=O)C1CCC(CNS(=O)(=O)c2ccc3c(c2)CC(C)N3C(C)=O)CC1 (configuration not stated) -9.44%, Cc1ccc(S(=O)(=O)c2nnn3c2nc(N2CCN(c4ccc(F)cc4)CC2)c2cc(Cl)ccc23)cc1C 6.18%, Cc1ccc(N2CCN(C(=O)Cc3c(C(=O)O)c(C)cn3C)CC2)c(C)c1 -3.27%, O=C(Nc1ccc(F)cc1)[C@H](CSCc1ccccc1)N1Cc2ccccc2C1=O 1.77%, O=C(COC(=O)CCCC1=NS(=O)(=O)c2ccccc2N1)Nc1ccc(Br)cc1 -29.1%, COc1ccc2nc(SCC(=O)c3c(C)[nH]c4ccccc34)nc(C)c2c1 -7.88%, CCOc1ccc(OCC)c(NC(=O)C2CCN(S(=O)(=O)c3ccc(Br)s3)CC2)c1 -7.26%, COc1ccc(-c2nc(C)c(CCNC(=O)Cc3ccc(F)cc3)s2)cc1OC -10.6%, CCc1ccc(NC(=O)C2CCN(C(=O)N3CC(CC)Oc4ccccc43)CC2)cc1 (configuration not stated) -12.9%, CCc1ccc(NC(=O)CSc2nc3nccnc3c(=O)n2CCc2c[nH]c3ccccc23)cc1 -13.4%, Cc1cccc(NC(=O)N2CCc3c(sc4c3CCCC4)C2c2ccc(F)cc2)c1 (configuration not stated) -10.5%, COc1cccc(-n2c(=O)c3c(C)c(C(=O)N(C)C)sc3n(CC(=O)NCCc3ccc(OC)c(OC)c3)c2=O)c1 0.474%, Cc1cccc(CSc2cn(CC(=O)N3CCCC3)c3ccccc23)c1 -11.8%, CCC(Oc1ccccc1)C(=O)Nc1ccc2oc(-c3ccc(OC)cc3)nc2c1 (configuration not stated) -17.7%, CCC(C)(CN(C)C)OC(=O)c1ccccc1 (configuration not stated) -28.3%, CC(=O)Nc1ccc(NC(=O)CCNS(=O)(=O)c2cccc3nsnc23)cc1 1.96%, Cc1ccccc1CNC(=O)Cn1ncn2nc(-c3cccs3)cc2c1=O -14%, CCOc1ccccc1CNC(=O)c1cc2cc(S(=O)(=O)N3CCCCC3)ccc2n1C 1.79%, COc1cccc(NC(=O)Cn2cc(S(=O)(=O)N3CCCC3)c(S(=O)(=O)N3CCCC3)c2)c1 -27.2%, CCc1ccc2oc(-c3cccc(NC(=O)c4ccc(N5CCC(C)CC5)c([N+](=O)[O-])c4)c3)nc2c1 -13.8%, Cc1ccc(CNC(=O)CSCc2ccc(F)cc2)cc1 -0.186%, O=S(=O)(c1ccccc1)n1nc(-c2ccccc2)nc1NCc1ccc(Cl)cc1 -30.2%, CCOc1cccc(CC(=O)N2CCc3c([nH]c4ccccc34)C2c2ccc(F)cc2)c1OCC (configuration not stated) -10.9%, CCOc1ccc(N(CC)S(=O)(=O)N2CCCC(C(=O)NCc3ccccc3Cl)C2)cc1 (configuration not stated) -15.2%, O=C(COc1ccc(S(=O)(=O)NC2CCCCC2)cc1)Nc1ccc(C(F)(F)F)cc1 -17.9%, Cc1cc(N2CCCCC2)nc2ccc(NC(=O)/C=C/c3ccccc3OC(C)C)cc12 -24.8%, O=C(Cc1cccc([N+](=O)[O-])c1)NCc1nc2cccnc2n1Cc1ccc(F)cc1 -7.92%, CC(=O)c1cccc(NC(=O)C2CCCN(c3nnc(-n4cccc4)s3)C2)c1 (configuration not stated) -24.2%, COc1cc(C2N=C(N)Nc3nc4ccccc4n32)ccc1OCCC(C)C (configuration not stated) -18.3%, CCOc1ccc(CC(=O)Nc2c(C(=O)c3ccc(C)cc3)oc3ccccc23)cc1OCC -16.7%
